Assay results taken from article PMC6919601, “Identification of Plasmodium dipeptidyl aminopeptidase allosteric inhibitors by high throughput screening” (PLoS ONE, 2019).
Among all 110,000 compounds or so, about 230 (0.21%) showed an effect of 50% or more. The list shows a part of the results.

The compounds below were run against DPAP1 (Plasmodium falciparum, UniProt Q8IIJ9) (assay: primary screen, percent inhibition; read by cleavage of a fluorogenic dipeptide substrate; higher = more effect of the substance).
Sequence of DPAP1 (Q8IIJ9 whole entry, looked up): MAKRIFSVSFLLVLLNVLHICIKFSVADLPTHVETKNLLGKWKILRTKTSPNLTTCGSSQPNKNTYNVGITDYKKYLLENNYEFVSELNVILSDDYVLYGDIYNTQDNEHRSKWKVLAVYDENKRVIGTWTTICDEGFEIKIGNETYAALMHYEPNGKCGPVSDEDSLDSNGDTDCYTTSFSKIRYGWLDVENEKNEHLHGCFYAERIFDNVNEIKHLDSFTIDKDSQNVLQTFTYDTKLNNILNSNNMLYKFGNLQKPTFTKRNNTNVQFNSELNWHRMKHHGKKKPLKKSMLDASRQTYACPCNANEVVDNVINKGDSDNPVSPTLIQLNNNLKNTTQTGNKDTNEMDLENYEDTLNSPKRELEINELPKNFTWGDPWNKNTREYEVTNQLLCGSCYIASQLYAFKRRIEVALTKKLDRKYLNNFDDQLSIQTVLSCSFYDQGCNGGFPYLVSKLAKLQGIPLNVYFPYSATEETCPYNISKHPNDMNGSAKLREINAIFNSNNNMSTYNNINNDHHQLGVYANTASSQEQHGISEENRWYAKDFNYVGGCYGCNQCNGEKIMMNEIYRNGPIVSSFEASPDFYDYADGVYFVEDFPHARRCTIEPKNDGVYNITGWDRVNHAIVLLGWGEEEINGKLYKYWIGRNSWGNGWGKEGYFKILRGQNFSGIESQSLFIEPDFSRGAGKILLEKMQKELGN
Parameters: species or system P. falciparum D10 trophozoite lysates; single well
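Note: 30 min substrate incubation versus DMSO and 10 µM JCP410 controls.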

| Compound | % Inhibition @ 10 uM [%] |
| --- | --- |
| Cc1ccc(CN2CCN(c3ccc(Cl)cc3)CC2)cc1 | -5.5 |
| COC(=O)C1CC2=CC(=O)CCC2(C)C2=CCC3(C)C(CC[C@@]34CCC(=O)O4)C21 (stereo partly drawn) | 5.37 |
| CCCC(=O)Nc1ccccc1C(=O)N(C1CCCCC1)C1CCCCC1 | -1.56 |
| CCOC(=O)c1nnc(Cc2ccc(Cl)cc2)o1 | -0.414 |
| CC(Oc1ccccc1)C(=O)N1CCN(c2ccc(F)cc2)CC1 (stereo not drawn) | -2.77 |
| Cn1c(=O)c2c(O)c(Cc3ccccc3)c(O)nc2n(C)c1=O | 5.48 |
| Cc1ccc(S(N)(=O)=O)cc1NC(=O)c1ccc(F)cc1 | -5.59 |
| COc1ccc(NC(=O)c2cc(-c3ccc(C)o3)nc3ccccc23)c(OC)c1 | 7.06 |
| CCCOc1ccc(CNC(=O)Cn2nc(C)c3sc4ccccc4c3c2=O)cc1 | -2.78 |
| COc1ccc(C2C(C#N)=C(N)Nc3ncnn32)cc1 (stereo not drawn) | 10.5 |
| CCN(Cc1ccccc1)S(=O)(=O)c1ccc(OC)cc1 | -5.32 |
| Cc1ccc2c(=O)cc(C(=O)Nc3nc(C)c(C(=O)OCC(C)C)s3)oc2c1 | -5.08 |
| COC(=O)c1ccc2nc(C)c(CN(C)C)c(O)c2c1 | -4.84 |
| CCCC(=O)c1ccc(N2CCN(C(=O)c3cccc(F)c3F)CC2)c(F)c1 | -7.15 |
| O=C(Nc1nnc(SCCN2C(=O)c3ccccc3S2(=O)=O)s1)c1ccccc1 | -3.53 |
| Cc1cccc(C(=O)Nc2cccc(C#N)c2)c1 | 1.13 |
| COc1ccccc1OCCCCN1CCC(C)CC1 | -3.04 |
| Clc1ccccc1-c1nnc(COc2ccc3ccccc3c2)o1 | 5.29 |
| CCOc1ccccc1NC1=C(Cl)C(=O)N(c2cc(Cl)ccc2OC)C1=O | -0.941 |
| COc1ccc(CCNC(=O)c2nn(C)cc2Cl)cc1 | 0.413 |
| O=C1CSC2=NCN(c3cccc(Cl)c3)CN12 | -4.21 |
| CO/C(=N\C1CCCCC1)C(O)c1c[nH]c2ccccc12 (stereo not drawn) | 2.06 |
| Cc1cc(OCC(O)CN2CCN(c3ccccc3F)CC2)ccc1Cl (stereo not drawn) | -7.93 |
| COc1ccc(NC(=O)C2CC(=O)N(c3ccc(OC(C)C)cc3)C2)cc1 (stereo not drawn) | -2.03 |
| COc1ccc2c(C)c(CC(=O)NCc3ccc4c(c3)OCO4)c(=O)oc2c1C | 2.54 |
| COc1ccc(CC(=O)NCCN2CCCC2)cc1 | 1.29 |

| Compound | % Inhibition @ 10 uM [%] |
| --- | --- |
| COc1ccc2occ(C(=O)/C=C/N(C)C)c2c1 | 4.56 |
| CCOc1ccc(-c2cc3nc(C4CCN(C(=O)OC(C)(C)C)CC4)c(C(=O)O)cn3n2)cc1 | -1.08 |
| Oc1ncc(CN2CCCCC2)c(O)n1 | 0.135 |
| COc1ccc(S(=O)(=O)N(CC(=O)N2CCc3ccccc3C2)c2ccc(F)cc2)cc1OC | -6.38 |
| CC1CC(C)CN(C(=O)c2ccc(CSc3nc4ccncc4[nH]3)cc2)C1 (stereo not drawn) | -1.58 |
| CC(C)CCn1c(=O)c2ccccc2n2c(CCC(=O)NCCc3ccc(Cl)cc3)nnc12 | 0.277 |
| CCOC(=O)c1[nH]c2ccccc2c1NC(=O)C12CC3CC(CC(C3)C1)C2 | 2.17 |
| COc1ccc(CCNC(=O)CSc2nc(NCc3ccccc3)c3ccccc3n2)cc1OC | -0.823 |
| Cc1cc(C)nc(NS(=O)(=O)c2ccc(NC(=O)c3ccccc3C(=O)O)cc2)n1 | -11.7 |
| O=C(O)c1ncccc1C(=O)N1CCN(C(=O)c2ccco2)CC1 | -1.22 |
| O=C1/C(=C/c2ccco2)CCc2c1cnc1ccc3ccccc3c21 | -5.15 |
| Cc1ccc2[nH]c(C)c(/C=C3\C(=N)N4N=C(N5CCOCC5)SC4=NC3=O)c2c1 | -3.44 |
| CCOc1cc(C2CC(=O)Nc3c2c(=O)nc(SCC)n3C)ccc1O (stereo not drawn) | 3.65 |
| CCCN1CCN(C(=O)c2ccc3c(Cl)c4c(nc3c2)CCCC4)CC1 | 0.232 |
| O=C(NC1CCCCCC1)c1cncc(Br)c1 | -0.68 |
| CCCNC(=O)c1cc(Cl)cc(Cl)c1NC(=O)c1ccc(OC)cc1 | 4.31 |
| Cc1ccc(OCC(=O)Nc2ccc(NC(=O)COc3ccc(C)cc3)cc2)cc1 | -3.92 |
| CCCCNC(=O)OCCNS(=O)(=O)c1ccccc1[N+](=O)[O-] | 2.5 |
| Cn1nccc1C(=O)Nc1cnn(Cc2ccc(F)cc2)c1 | 2.64 |
| O=C(Nc1ccc(Cl)cc1)Nc1cccc2c(=O)[nH][nH]c(=O)c12 | -1.91 |
| Cc1cc(NC(=O)C2CC(c3ccccc3F)=NO2)no1 (stereo not drawn) | -0.431 |
| O=C(NCc1nc(-c2ccccc2)no1)c1cccs1 | -8.69 |
| Cc1ccc2oc(=O)c3cc(C(=O)Nc4nc(C)cs4)sc3c2c1 | 4.15 |
| C=CCOc1cccc(/C=C2/N=C(C)C(C(=O)OC)=C2O)c1 | 1.81 |
| COc1nc2c(C)cccc2cc1-c1noc(-c2cccnc2)n1 | -0.671 |
| CC(C)C(=O)N1CCN(CCNC=C2C(=O)N(C)C(=O)N(C)C2=O)CC1 | -0.736 |

| Compound | % Inhibition @ 10 uM [%] |
| --- | --- |
| O=C(NCc1cccc(C(F)(F)F)c1)C1CCCN(c2cnccn2)C1 (stereo not drawn) | 5.43 |
| O=C(O)C1CCC(C/N=c2\cc(O)oc3ccccc23)CC1 (stereo not drawn) | 1.76 |
| COc1ccc(/C=C(\C#N)c2nc(-c3ccc(OC)cc3)cs2)cc1 | 0.467 |
| NC1=C(c2ccccc2)S(=O)(=O)c2cc(Oc3ccccc3)ccc21 | 1.93 |
| Cc1nc2c(=O)n(C)c(=O)nc-2n(C)n1 | 14.5 |
| CC(=O)c1ccc(OCCOc2ccc(C#N)cc2)cc1 | -8.51 |
| COc1ccc2nc(NC(=O)C3CCN(S(=O)(=O)c4cccc5nonc45)CC3)sc2c1 | -1.29 |
| Cc1cc(-c2ccc(C)c(S(=O)(=O)N3CCC(Cc4ccccc4)CC3)c2)on1 | 6.77 |
| C=Cc1ccc(Cn2c(C(=O)O)c(CNCC3CCCO3)c3ccc(C)cc32)cc1 (stereo not drawn) | 4.78 |
| CC(C)CCNC(=O)c1ccc2c(Cl)c3c(nc2c1)CCC3 | 1.15 |
| O=C(O)c1ccc2c(c1)C(=O)N(Cc1ccc3c(c1)OCO3)C2=O | -3.87 |
| O=C(c1cc2c3c(c1O)CCCN3CCC2)C(F)(F)F | -9.33 |
| O=C(COc1ccc(Cl)cc1)Nc1ccc(S(=O)(=O)N2CCOCC2)cc1 | -2.24 |
| O=C(CCN1C(=O)c2ccccc2S1(=O)=O)Nc1ccccc1O | 3.17 |
| COc1cc2c(cc1OC)C1=C(C#N)CN(CCO)CN1CC2 | -2.45 |
| Clc1ccccc1Cc1nn[nH]n1 | 3.99 |
| CCOC(=O)C1=C(CS(=O)(=O)c2ccc(C)cc2)NC(=O)NC1c1ccc(OC)cc1OC (stereo not drawn) | -2.16 |
| COc1cccc(C2=CC(c3ccccc3C)n3nnnc3N2)c1 (stereo not drawn) | -9.03 |
| COc1ccc(-c2noc(NCCc3c[nH]c4ccccc34)n2)cc1 | -1.44 |
| O=C(Cn1c2c(c(-c3ccccc3)cc1=O)CCCC2)NCc1ccc(F)cc1 | 4.47 |
| CC1=C(C(=O)Nc2cc(C)ccn2)C(c2ccc(F)cc2)C2=C(O)CC(C)(C)CC2=N1 (stereo not drawn) | -6.36 |
| COc1ccccc1N1C(=O)c2ccc(S(=O)(=O)c3ccc(C(=O)O)cc3)cc2C1=O | 5.17 |
| O=C(NCCc1c[nH]c2ccccc12)c1nsc(Cl)c1Cl | 0.415 |
| CCOc1ccccc1CNCc1c(C(=O)O)[nH]c2cc(OC)ccc12 | -4.46 |
| O=[N+]([O-])c1ccc(Oc2ccc(S(=O)(=O)NC3CCCCC3)cc2)cc1 | -6.22 |
| CCOc1cc2c(cc1OCC)C(c1ccc(F)cc1)NCC2 (stereo not drawn) | -0.891 |

| Compound | % Inhibition @ 10 uM [%] |
| --- | --- |
| N#Cc1cc2c(nc1SCC(=O)NCc1ccc3c(c1)OCO3)C1CCN2CC1 | 6.31 |
| COCCNc1nc2ccccc2c2nc(CCn3c(C)nc4ccccc43)nn12 | -3.13 |
| CO/C(O)=C1/C(C)=NC2=C(C(=O)CC(c3ccccc3)C2)C1c1ccc(N(C)C)cc1 (stereo not drawn) | 5.01 |
| Cc1cc(=O)oc2cc(OCc3ccccc3)c(O)cc12 | 2.94 |
| Nc1ccc2nc(-c3cccc(Cl)c3)oc2c1 | 4.41 |
| CCOc1ccc2nc(N3CCC(C(=O)N4CCOCC4)CC3)sc2c1 | 3.4 |
| CCN1CCN(Cc2ccc(Cl)cc2)CC1 | -5.57 |
| CCN(CC)c1ncnc2c1c(-c1ccccc1)cn2-c1ccc(OC)cc1 | 4.46 |
| O=C(NCc1cccnc1)c1cc(-c2cccnc2)nc2ccccc12 | -4.06 |
| COc1ccc(-c2cn3c(n2)sc2cc(C(=O)N4CCN(C(=O)c5ccco5)CC4)ccc23)cc1 | 32.5 |
| O=C(Nc1ccccc1)Nc1ccc(N2CCOCC2)cc1 | 6.21 |
| CCOc1cc(C(=O)Nc2nccs2)cc(OCC)c1OCC | -5.79 |
| N#Cc1c(O)ncc2c1N(Cc1ccccc1)CC2 | -1.42 |
| CC(=O)Nc1cccc(NC(=O)c2ccc(-c3ccccc3)cc2)c1 | -1.94 |
| N=C(N)Nc1nc2ccccc2s1 | -2.51 |
| CCC1CCC(N2CCN(c3ccc([N+](=O)[O-])cc3)CC2)CC1 (stereo not drawn) | -4.04 |
| Cc1ccccc1/C=C1/SC(=O)NC1=O | 4.86 |
| c1ccc(N2CCN(C3CCSC3)CC2)cc1 (stereo not drawn) | 0.565 |
| O=C(CCNS(=O)(=O)c1cccc2nsnc12)N1CC(=O)N(CCc2ccccc2)C(=O)C1 | 0.457 |
| Cc1ccc(C)c2c(N)c3c(nc12)CCCCC3 | -6.46 |
| Brc1ccccc1OCCCCN1CCOCC1 | -8.37 |
| O=C(O)C(=O)Cc1ccccc1 | -3.78 |
| FC(F)(F)c1ccc(N2CCN(c3ccccc3)CC2)nc1 | 3.66 |
| COc1ccccc1C1CN(c2ccc(Cl)cc2)N=C1c1cccs1 (stereo not drawn) | -6.12 |
